Results are given in words; binding and its absence hold for the method and conditions named. For some of these results: In cells and extracts the contact can be indirect. Some entries that bind do so weakly or less than the wild type. Tags and fused reporters may be left off the sequences shown.

The chains behind the UniProt entries cited, without tags or fusion partners.
UniProt P33993: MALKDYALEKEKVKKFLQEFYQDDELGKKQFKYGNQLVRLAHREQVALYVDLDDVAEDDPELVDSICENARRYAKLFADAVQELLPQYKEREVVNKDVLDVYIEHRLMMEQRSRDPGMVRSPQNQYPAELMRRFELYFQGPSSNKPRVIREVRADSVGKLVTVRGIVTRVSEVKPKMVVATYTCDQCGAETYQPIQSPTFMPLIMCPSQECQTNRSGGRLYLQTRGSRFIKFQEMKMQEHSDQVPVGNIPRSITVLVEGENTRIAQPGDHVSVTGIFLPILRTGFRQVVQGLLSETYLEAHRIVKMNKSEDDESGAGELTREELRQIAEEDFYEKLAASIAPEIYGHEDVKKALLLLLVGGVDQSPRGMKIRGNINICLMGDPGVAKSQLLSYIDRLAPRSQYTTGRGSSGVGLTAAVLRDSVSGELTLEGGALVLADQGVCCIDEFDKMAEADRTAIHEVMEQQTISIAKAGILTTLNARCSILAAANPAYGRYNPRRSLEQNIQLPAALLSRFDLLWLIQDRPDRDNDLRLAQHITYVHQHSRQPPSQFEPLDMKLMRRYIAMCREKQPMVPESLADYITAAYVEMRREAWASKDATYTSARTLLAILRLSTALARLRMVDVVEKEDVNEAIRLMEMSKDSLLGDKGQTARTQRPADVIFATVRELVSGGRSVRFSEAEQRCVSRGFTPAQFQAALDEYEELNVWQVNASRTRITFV

In experiment [1] the target is T1, TEN1, yeast two-hybrid fusion (human) (UniProt Q86WV5).
T1 sequence: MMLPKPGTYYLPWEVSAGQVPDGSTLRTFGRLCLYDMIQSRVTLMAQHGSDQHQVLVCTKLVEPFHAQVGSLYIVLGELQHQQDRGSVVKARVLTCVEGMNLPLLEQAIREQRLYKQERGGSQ
Description: two-hybrid; Matchmaker GAL4 system; mating of S. cerevisiae Y187 (pGBKT7) and AH109 (pGADT7); diploids from DDO spotted on QDO (high stringency) or TDO (less stringent) medium, 30°C, growth recorded after 3-4 d.

Experiment [2] concerns the target T2, STN1, yeast two-hybrid fusion (human) (UniProt Q9H668).
T2 sequence: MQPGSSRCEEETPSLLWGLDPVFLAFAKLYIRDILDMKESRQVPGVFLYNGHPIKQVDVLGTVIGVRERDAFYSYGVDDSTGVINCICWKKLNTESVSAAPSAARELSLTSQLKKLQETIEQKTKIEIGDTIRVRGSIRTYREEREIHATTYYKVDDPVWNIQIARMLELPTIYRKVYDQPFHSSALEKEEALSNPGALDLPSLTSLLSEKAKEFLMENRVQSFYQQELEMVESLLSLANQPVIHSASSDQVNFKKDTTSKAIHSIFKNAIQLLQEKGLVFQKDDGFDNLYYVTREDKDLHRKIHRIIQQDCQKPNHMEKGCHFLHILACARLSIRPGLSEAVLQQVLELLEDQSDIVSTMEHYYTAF
The experiment is described as above.

Experiment [3] has as its target T3, CTC1, yeast two-hybrid fusion (human) (UniProt Q2NKJ3).
T3 sequence: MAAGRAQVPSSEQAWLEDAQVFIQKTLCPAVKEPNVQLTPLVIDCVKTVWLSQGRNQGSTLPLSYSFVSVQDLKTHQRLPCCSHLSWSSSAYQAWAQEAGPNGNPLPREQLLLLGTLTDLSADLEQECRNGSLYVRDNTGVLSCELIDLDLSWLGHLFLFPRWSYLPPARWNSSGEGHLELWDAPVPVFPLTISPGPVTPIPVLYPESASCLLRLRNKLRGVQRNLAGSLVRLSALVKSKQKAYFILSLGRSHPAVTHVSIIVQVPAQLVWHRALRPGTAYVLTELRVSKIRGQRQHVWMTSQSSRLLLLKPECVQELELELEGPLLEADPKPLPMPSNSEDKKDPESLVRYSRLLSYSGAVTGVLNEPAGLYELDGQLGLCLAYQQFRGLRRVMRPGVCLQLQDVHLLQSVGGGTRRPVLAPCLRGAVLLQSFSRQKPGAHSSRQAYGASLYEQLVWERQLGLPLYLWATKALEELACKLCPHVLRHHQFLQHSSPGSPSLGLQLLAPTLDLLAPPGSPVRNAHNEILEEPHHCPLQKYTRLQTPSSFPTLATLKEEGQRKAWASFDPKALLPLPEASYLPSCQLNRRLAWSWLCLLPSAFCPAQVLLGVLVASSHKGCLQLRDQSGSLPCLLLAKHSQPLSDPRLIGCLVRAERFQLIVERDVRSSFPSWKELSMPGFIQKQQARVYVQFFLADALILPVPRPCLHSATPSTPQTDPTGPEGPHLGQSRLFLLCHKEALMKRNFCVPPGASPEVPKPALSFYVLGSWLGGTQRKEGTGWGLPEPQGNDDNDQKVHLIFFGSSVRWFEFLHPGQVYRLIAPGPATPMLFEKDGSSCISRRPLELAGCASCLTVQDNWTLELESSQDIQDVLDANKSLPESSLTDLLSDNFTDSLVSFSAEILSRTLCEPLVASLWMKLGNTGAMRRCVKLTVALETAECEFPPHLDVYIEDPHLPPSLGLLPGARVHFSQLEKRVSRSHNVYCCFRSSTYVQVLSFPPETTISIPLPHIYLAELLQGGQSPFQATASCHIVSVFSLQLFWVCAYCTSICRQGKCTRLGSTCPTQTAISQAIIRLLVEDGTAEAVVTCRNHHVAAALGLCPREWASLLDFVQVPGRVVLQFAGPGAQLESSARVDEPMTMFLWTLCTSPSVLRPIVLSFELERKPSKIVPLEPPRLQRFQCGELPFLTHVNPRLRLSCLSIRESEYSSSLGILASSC
Described as above.

In experiment [4] the target is MCM7 (endogenous) (human (endogenous in HEK 293T)) (UniProt P33993). Put plainly: co-IP; reciprocal: lysates from HEK 293T cells transfected with plasmids expressing CST; IP with MCM7 antibody or IgG control; STN1 detected by blot.

B1: MCM5, yeast two-hybrid fusion (protein, UniProt P33992 1-734)
chain: MSGFDDPGIFYSDSFGGDAQADEGQARKSQLQRRFKEFLRQYRVGTDRTGFTFKYRDELKRHYNLGEYWIEVEMEDLASFDEDLADYLYKQPAEHLQLLEEAAKEVADEVTRPRPSGEEVLQDIQVMLKSDASPSSIRSLKSDMMSHLVKIPGIIIAASAVRAKATRISIQCRSCRNTLTNIAMRPGLEGYALPRKCNTDQAGRPKCPLDPYFIMPDKCKCVDFQTLKLQELPDAVPHGEMPRHMQLYCDRYLCDKVVPGNRVTIMGIYSIKKFGLTTSRGRDRVGVGIRSSYIRVLGIQVDTDGSGRSFAGAVSPQEEEEFRRLAALPNVYEVISKSIAPSIFGGTDMKKAIACLLFGGSRKRLPDGLTRRGDINLLMLGDPGTAKSQLLKFVEKCSPIGVYTSGKGSSAAGLTASVMRDPSSRNFIMEGGAMVLADGGVVCIDEFDKMREDDRVAIHEAMEQQTISIAKAGITTTLNSRCSVLAAANSVFGRWDETKGEDNIDFMPTILSRFDMIFIVKDEHNEERDVMLAKHVITLHVSALTQTQAVEGEIDLAKLKKFIAYCRVKCGPRLSAEAAEKLKNRYIIMRSGARQHERDSDRRSSIPITVRQLEAIVRIAEALSKMKLQPFATEADVEEALRLFQVSTLDAALSGTLSGVEGFTSQEDQEMLSRIEKQLKRRFAIGSQVSEHSIIKDFTKQKYPEHAIHKVLQLMLRRGEIQHRMQRKVLYRLK
Turning to B1, the binding result in experiment [1] is recorded as “no binding”.

B2: TEN1, yeast two-hybrid fusion (protein, UniProt Q86WV5 1-123)
chain: T1 sequence
B2: in experiment [2], the binding entry is “binds”.

B3: MCM6, yeast two-hybrid fusion (protein, UniProt Q14566 1-821)
chain: MDLAAAAEPGAGSQHLEVRDEVAEKCQKLFLDFLEEFQSSDGEIKYLQLAEELIRPERNTLVVSFVDLEQFNQQLSTTIQEEFYRVYPYLCRALKTFVKDRKEIPLAKDFYVAFQDLPTRHKIRELTSSRIGLLTRISGQVVRTHPVHPELVSGTFLCLDCQTVIRDVEQQFKYTQPNICRNPVCANRRRFLLDTNKSRFVDFQKVRIQETQAELPRGSIPRSLEVILRAEAVESAQAGDKCDFTGTLIVVPDVSKLSTPGARAETNSRVSGVDGYETEGIRGLRALGVRDLSYRLVFLACCVAPTNPRFGGKELRDEEQTAESIKNQMTVKEWEKVFEMSQDKNLYHNLCTSLFPTIHGNDEVKRGVLLMLFGGVPKTTGEGTSLRGDINVCIVGDPSTAKSQFLKHVEEFSPRAVYTSGKASSAAGLTAAVVRDEESHEFVIEAGALMLADNGVCCIDEFDKMDVRDQVAIHEAMEQQTISITKAGVKATLNARTSILAAANPISGHYDRSKSLKQNINLSAPIMSRFDLFFILVDECNEVTDYAIARRIVDLHSRIEESIDRVYSLDDIRRYLLFARQFKPKISKESEDFIVEQYKHLRQRDGSGVTKSSWRITVRQLESMIRLSEAMARMHCCDEVQPKHVKEAFRLLNKSIIRVETPDVNLDQEEEIQMEVDEGAGGINGHADSPAPVNGINGYNEDINQESAPKASLRLGFSEYCRISNLIVLHLRKVEEEEDESALKRSELVNWYLKEIESEIDSEEELINKKRIIEKVIHRLTHYDHVLIELTQAGLKGSTEGSESYEEDPYLVVNPNYLLED
As for B3, the binding entry in experiment [1] is listed as “no binding”.

B4: STN1, yeast two-hybrid fusion (protein, UniProt Q9H668 1-368)
chain: T2 sequence
As to B4, the binding result in experiment [3] is “binds”.

B5: Flag-tagged STN1 (protein, UniProt Q9H668 1-368)
chain: T2 sequence
Consider B5, for which the binding result in experiment [4] is on record as “binds”.

B6: MCM3, yeast two-hybrid fusion (protein, UniProt P25205 1-808)
chain: MAGTVVLDDVELREAQRDYLDFLDDEEDQGIYQSKVRELISDNQYRLIVNVNDLRRKNEKRANRLLNNAFEELVAFQRALKDFVASIDATYAKQYEEFYVGLEGSFGSKHVSPRTLTSCFLSCVVCVEGIVTKCSLVRPKVVRSVHYCPATKKTIERRYSDLTTLVAFPSSSVYPTKDEENNPLETEYGLSVYKDHQTITIQEMPEKAPAGQLPRSVDVILDDDLVDKAKPGDRVQVVGTYRCLPGKKGGYTSGTFRTVLIACNVKQMSKDAQPSFSAEDIAKIKKFSKTRSKDIFDQLAKSLAPSIHGHDYVKKAILCLLLGGVERDLENGSHIRGDINILLIGDPSVAKSQLLRYVLCTAPRAIPTTGRGSSGVGLTAAVTTDQETGERRLEAGAMVLADRGVVCIDEFDKMSDMDRTAIHEVMEQGRVTIAKAGIHARLNARCSVLAAANPVYGRYDQYKTPMENIGLQDSLLSRFDLLFIMLDQMDPEQDREISDHVLRMHRYRAPGEQDGDAMPLGSAVDILATDDPNFSQEDQQDTQIYEKHDNLLHGTKKKKEKMVSAAFMKKYIHVAKIIKPVLTQESATYIAEEYSRLRSQDSMSSDTARTSPVTARTLETLIRLATAHAKARMSKTVDLQDAEEAVELVQYAYFKKVLEKEKKRKKRSEDESETEDEEEKSQEDQEQKRKRRKTRQPDAKDGDSYDPYDFSDTEEEMPQVHTPKTADSQETKESQKVELSESRLKAFKVALLDVFREAHAQSIGMNRLTESINRDSEEPFSSVEIQAALSKMQDDNQVMVSEGIIFLI
On to B6, for which, in experiment [1], the binding entry is given as “no binding”.

B7: CDC45, yeast two-hybrid fusion (protein, UniProt O75419 1-566)
chain: MFVSDFRKEFYEVVQSQRVLLFVASDVDALCACKILQALFQCDHVQYTLVPVSGWQELETAFLEHKEQFHYFILINCGANVDLLDILQPDEDTIFFVCDTHRPVNVVNVYNDTQIKLLIKQDDDLEVPAYEDIFRDEEEDEEHSGNDSDGSEPSEKRTRLEEEIVEQTMRRRQRREWEARRRDILFDYEQYEYHGTSSAMVMFELAWMLSKDLNDMLWWAIVGLTDQWVQDKITQMKYVTDVGVLQRHVSRHNHRNEDEENTLSVDCTRISFEYDLRLVLYQHWSLHDSLCNTSYTAARFKLWSVHGQKRLQEFLADMGLPLKQVKQKFQAMDISLKENLREMIEESANKFGMKDMRVQTFSIHFGFKHKFLASDVVFATMSLMESPEKDGSGTDHFIQALDSLSRSNLDKLYHGLELAKKQLRATQQTIASCLCTNLVISQGPFLYCSLMEGTPDVMLFSRPASLSLLSKHLLKSFVCSTKNRRCKLLPLVMAAPLSMEHGTVTVVGIPPETDSSDRKNFFGRAFEKAAESTSSRMLHNHFDLSVIELKAEDRSKFLDALISLLS
Consider B7, for which the binding result in experiment [1] is reported as “no binding”.
